According to PubChem BioAssay AID540267 (National Center for Advancing Translational Sciences (NCATS), 2011):
Screen size: about 340,000 compounds; about 530 (0.16%) were called active. The shares of active, inactive and inconclusive entries below differ from those in the screen. Cut-off read from the data, not from the text of the source: active = activity change below about -80%; inconclusive = between about -30% and that limit; inactive = weaker than that.

Test: Small Molecules that selectively kill Giardia lamblia: qHTS;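 note: parasites exposed to compound for two days anaerobically before the ATP read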
Details: Giardia lamblia trophozoite viability; at 7.66 µM; active compounds read low
How it was run: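 ATP-content bioluminescence gauges trophozoite survival. Cells (100/well) receive compound and incubate anaerobically for 48 hrs at 37 deg C; detection reagent follows for 15-30 min at room temperature.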
% is set by controls: 0 for no effect and ±100 for the full control effect.

SMILES | activity change
C[C@@H]1CN([C@@H](C)CO)C(=O)Cc2cc(NC(=O)Nc3ccc(F)cc3)ccc2O[C@@H]1CN(C)Cc1ccc(Cl)c(Cl)c1 | inactive: -7.29%
COc1ccc2cc1Oc1ccc(cc1)C[C@H]1c3c(cc(OC)c4c3Oc3c(ccc5c3[C@H](C2)N(C)CC5)O4)CCN1C | inconclusive: -72.2% [inhibitor]
CN1CCN(C(CNC(=O)Nc2ccc(Cl)cc2)c2ccc(F)cc2)CC1 (stereo unspecified) | inactive: -5.09%
O=C(NCc1cccs1)C12CC3CC(CC(C3)C1)C2 | inconclusive: -30% [inhibitor]
CCCc1c(C(=O)N/N=C/c2ccccc2OCc2ccc(F)cc2)nnn1-c1nonc1N | inconclusive: -35.6% [inhibitor]
COc1ccccc1-c1nnc(SCC(=O)Nc2oc(C)c3c(C)n[nH]c(=O)c23)n1C | inconclusive: -37.2% [inhibitor]
CCN(CC)c1ccc(NC(=O)C2CCCN(S(=O)(=O)c3cccnc3)C2)c(C)c1 (stereo unspecified) | inactive: 7.53%
COc1ccc(-c2ncnc(C(F)(F)F)c2-c2csc(C)n2)c(O)c1 | inconclusive: -32.1% [inhibitor]
O=C(N/N=C/c1ccccn1)c1ccc(S(=O)(=O)N2CCCCCC2)cc1 | inconclusive: -36.8% [inhibitor]
Cc1cc(C(=O)COC(=O)c2n[nH]c3ccccc23)c(C)n1C | inconclusive: -40.6% [inhibitor]
CCOC(=O)c1nnc(-c2ccccc2)nc1Oc1ccccc1Cl | inactive: 3.16%
O=C(Nc1ccc(Oc2cccnc2)cc1)C1CCN(Cc2cc(Cl)ccc2O)CC1 | inactive: -1.62%
CCOC(=O)c1cn2nc(N3CCCCC3)ccc2n1 | inconclusive: -39.6% [inhibitor]
COc1ccccc1C(=O)Nc1ccc2c(c1)OCCO2 | inconclusive: -42.4% [inhibitor]
C=CCNC(=S)N1N=C(c2ccco2)CC1c1ccco1 (stereo unspecified) | inactive: 4.7%
O=C(c1cc(COc2c(F)cccc2F)on1)N1CCc2ccccc2C1 | inconclusive: -46.2% [inhibitor]
Cc1cccc(NC(=O)c2ccc([N+](=O)[O-])o2)c1C | active: -97.3%
CC(C)C(=O)NNC(=O)CSc1ncnc2c1cnn2-c1ccccc1Cl | inactive: -4.65%
COc1ccc(C(=O)NCCS(=O)(=O)NCc2ccc(F)cc2)cc1 | inconclusive: -33.1% [inhibitor]
COc1ccc(C(=O)NCCNc2ccccc2[N+](=O)[O-])cc1 | inconclusive: -35.3% [inhibitor]
CCC1CCCCN1Cc1nc2c(c(=O)n(C)c(=O)n2C)n1CC(C)C (stereo unspecified) | inconclusive: -40.4% [inhibitor]

SMILES | activity change
Cc1nnc(N(Cc2ccco2)C(=O)c2ccc(C#N)cc2)s1 | inactive: 2.34%
COc1ccc(SCCN2CCN(CCc3ccccc3)CCC2=O)cc1 | inconclusive: -38% [inhibitor]
CCSc1nnc(NC(=O)c2csc3c2CCC(C)C3)s1 (stereo unspecified) | inactive: 13.2%
CCOC(=O)c1c(NC(=O)c2cccc(N3C(=O)CCC3=O)c2)sc(C)c1C | inconclusive: -32.3% [inhibitor]
CC(=O)Nc1nnc(S(N)(=O)=O)s1 | inactive: -2.86%
COc1ccc(N2C(=O)CC(C#N)=C2N)cc1 | inconclusive: -31% [inhibitor]
CN1CC(=O)N(C)c2ncn(Cc3ccccc3)c2C1=O | inconclusive: -31.7% [inhibitor]
COc1ccc(CCNC(=O)C(=O)NCc2ccccn2)cc1 | inconclusive: -36.1% [inhibitor]
Oc1ccc(-c2cn3cc(C(F)(F)F)ccc3n2)cc1 | inconclusive: -77.8% [inhibitor]
CNC(=S)NNC(=O)c1sccc1OCc1ccc(Cl)cc1Cl | inactive: -27.2%
O=C1/C(=C\c2ccc(O)cc2)SC(=S)N1c1cccnc1 | inactive: -5.41%
Cc1ccccc1S(=O)(=O)N1C[C@H]2CON(C)[C@H]2C[C@H]1c1cccc(-c2ccccc2)c1 | inactive: 8.97%
Cc1ccc(OCC(=O)Nc2ccc3c(c2)C(=O)N(CCC(=O)O)C3=O)cc1 | inconclusive: -37.8% [inhibitor]
Cc1noc(C)c1COc1ccc(C(=O)Nc2ccccn2)cc1 | inconclusive: -32.9% [inhibitor]
N#Cc1ccsc1NC(=O)COC(=O)c1ccc(NC(N)=O)cc1 | inconclusive: -37.8% [inhibitor]
CN1CCCCc2c1nc1c(c2N)CCCC1 | inactive: 7.77%
Cc1ccc(Nc2nc3ccc(Cl)cc3n3cnnc23)cc1F | inactive: 43.9%
COc1ccc(-c2nsc3c(N4CCCC4)ncnc23)cc1 | inconclusive: -36.7% [inhibitor]
CCCCC[C@@H]1C=C(C(=O)O)[C@H](c2ccc(Cl)c(Cl)c2)N1S(=O)(=O)c1ccc(C)cc1 | inconclusive: -39% [inhibitor]
[O-]/C(=C(\C(=S)Nc1cccc2ccccc12)[n+]1ccccc1)c1cccs1 | inconclusive: -31.2% [inhibitor]
NC(=O)CCCn1c(C(=O)c2cc(Cl)c(N)c(Cl)c2)c2ccc([N+](=O)[O-])cc2[n+]1[O-] | inconclusive: -50.4% [inhibitor]

SMILES | activity change
CCCN1CCN(C(=O)c2nn(-c3ccc(OC)cc3)c(=O)c3c2c2ccccc2n3C)CC1 | inconclusive: -33.8% [inhibitor]
O=C(CCN1CCC2CCC(C2)C1)c1ccc(F)cc1 (stereo unspecified) | inactive: -8.62%
CCOc1cccc(C(=O)Nc2ccc3[nH]ncc3c2)c1 | inconclusive: -41.1% [inhibitor]
COCCn1c(SCC(=O)Nc2nnc(C)s2)nnc1-c1ccoc1C | inconclusive: -38.3% [inhibitor]
CCC(C)NC(=O)C1CCN(S(=O)(=O)c2cc([N+](=O)[O-])ccc2Cl)CC1 (stereo unspecified) | inconclusive: -43.9% [inhibitor]
O=[N+]([O-])c1ccc(NCc2ccc3c(c2)OCO3)cc1 | inconclusive: -39.9% [inhibitor]
CCOC(=O)C1CCCN(C(=O)Cc2ccc(C)cc2)C1 (stereo unspecified) | inconclusive: -30.9% [inhibitor]
COc1ccc(/C(N)=N/O)c(OC)c1 | inconclusive: -33.3% [inhibitor]
COc1cccc(-c2nc3ccccc3s2)c1O | inconclusive: -36.3% [inhibitor]
CCn1c(CNc2nc3ccccc3n2C(C)C)nc2ccccc21 | inactive: -21.3%
CCCNC(=O)C(Cc1cccc(OC)c1)NC(=O)c1ccc(C(C)(C)C)cc1 (stereo unspecified) | inactive: -5%
Cc1cc(C(=O)NNC(=S)NCC(C)C)no1 | inactive: -3.31%
O=C(Nc1nc2ccccc2s1)c1ccc([N+](=O)[O-])o1 | active: -99.7%
O=C(Oc1cc(-c2ccccc2)no1)c1ccc(Cl)cc1 | inactive: 7.86%
CC(=O)Nc1ccc(S(=O)(=O)c2ccc(N)cc2)cc1N | inconclusive: -32.9% [inhibitor]
O=C(NCCc1ccc(Cl)cc1)c1ccc2c(c1)OCCO2 | inconclusive: -33.8% [inhibitor]
CCOc1ccc2oc(-c3ccccc3)c(C(=O)N(C)C)c2c1 | inconclusive: -30.8% [inhibitor]
CC(C)(C)OC(=O)N1Cc2ccccc2C[C@H]1C(=O)NCC(=O)NC1CCCC1 | inconclusive: -35.2% [inhibitor]
CC(C)Cn1c(N)c(C(=O)COC(=O)c2cc(-c3ccccc3)nc3ccccc23)c(=O)n(C)c1=O | inconclusive: -35% [inhibitor]
C=CCc1cc(OC)ccc1OCCOCCN1CCc2ccccc2C1 | inactive: 15.1%
COCCn1c(N)c(Sc2ccc([N+](=O)[O-])cc2)c(=O)[nH]c1=O | inconclusive: -33.4% [inhibitor]

SMILES | activity change
O=c1n(Cc2ccccc2Cl)nc2n1-c1ccccc1SC2 | inconclusive: -42.1% [inhibitor]
Cc1c(C(=O)Nc2ccc(Cl)cc2)c2ccccn2c1C(=O)c1ccc(F)cc1 | inactive: -7.82%
CC(C(=O)NCc1ccc(Cl)cc1)n1cccc1C(=O)c1ccccc1 (stereo unspecified) | inconclusive: -39.1% [inhibitor]
S=C(NCC1CCCO1)Nc1ccccc1 (stereo unspecified) | inactive: -14.8%
Cc1cc(C(=O)O)cc(S(=O)(=O)NNC(=O)c2cccs2)c1C | inactive: -10%
Cc1cc(NC(=O)CS(=O)(=O)c2c[nH]c3ccccc23)no1 | inactive: 0.716%
COc1cc(N=c2c([N+](=O)[O-])nn(-c3ccc4c(c3)OCCO4)n2O)cc(OC)c1 | inconclusive: -46.9% [inhibitor]
CCOC(=O)c1cc(C)sc1NC(=O)CN1CCN(C(=O)C2CCCO2)CC1 (stereo unspecified) | inactive: -22.2%
Cc1cccc(N2CCN(S(=O)(=O)c3cccs3)CC2)c1C | inconclusive: -36.3% [inhibitor]
COc1ccc(Cl)cc1NS(=O)(=O)N1CCOCC1 | inactive: -0.805%
O=[N+]([O-])C(/C=C(/Cl)[N+](=O)[O-])=C(N1CCCCC1)N1CCCCC1 | active: -93.7%
Nc1ccc(N=Nc2ccc(N)cc2)cc1 | inconclusive: -36.1% [inhibitor]
COc1ccc(Cn2nnnc2C(c2ccccc2)N2CCN(c3ccccc3)CC2)cc1 (stereo unspecified) | inactive: 5.77%
Cc1ccc(-n2cnc3c(=O)[nH]cnc32)cc1 | inconclusive: -30.5% [inhibitor]
Nc1c(Cl)cc(C2=NCCn3c2c2ccccc2[n+]3[O-])cc1Cl | inconclusive: -68.8% [inhibitor]
COc1ccccc1NS(=O)(=O)c1ccc(Cl)c(NC(=O)c2sc3cc(Cl)ccc3c2Cl)c1 | inactive: -3.13%
O=C(CCN1C(=O)c2ccccc2S1(=O)=O)Nc1cccc(F)c1 | inactive: 7.83%
Cc1cc2nc(-c3ccc(SCC(=O)Nc4ccc(S(=O)(=O)NC5CC5)cc4)nc3)[nH]c2cc1C | inconclusive: -43.3% [inhibitor]
